Results from the supplement of paper PMC4723716.
± gives the uncertainty stated by the source. In all, about 9,900 compounds were measured (“viability index relative to DMSO control”: median about 1, lowest 2% from about 0.85 on). The list shows a part of the results.

Test system: Plasmodium falciparum NF54 stage V gametocytes
Assay: viability index relative to DMSO control (fraction); higher = less gametocyte killing
Settings: 2.5 µM, incubation time: 72 h
Method in brief: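 Gametocytes (P. falciparum NF54, stage V) were treated with compound at 2.5 µM for 72 hr at 37°C in low oxygen, in serum-free medium at 0.75% gametocytemia and 1.25% hematocrit. Counts of 20–70 µm2 red particles, taken from one field per well after MitoTracker Red CMXRos with saponin, were divided by the plate mean of solvent-only wells. This ratio is the viability index.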

[1] = library set: Broad Institute DOS

Row | SMILES | viability index [1] | viability index (library set: Broad Institute Blood Stage)
1 | C[C@H]1CN([C@@H](C)CO)S(=O)(=O)c2ccc(C#CCC3CCCC3)cc2O[C@H]1CN(C)C(=O)c1cnccn1 | 0.864 ± 0.039 | –
2 | COc1ccc2c3c([nH]c2c1)[C@@H](CO)N(Cc1nccs1)C[C@]31CCN(CC1)C(=O)C1CCCCC1 | 1.04 ± 0.14 | –
3 | C[C@@H]1CN([C@H](C)CO)C(=O)CCCn2nncc2CO[C@@H]1CN(C)Cc1ccc2c(c1)OCCN2C | 1.06 ± 0.039 | –
4 | Cc1ccc(CN2CC(=O)N3[C@H](CO)[C@@H](c4ccc(-c5ccccc5F)cc4)[C@@H]3C2)cc1 | 0.979 ± 0.025 | –
5 | Cc1cccc(-c2ccc([C@H]3[C@H]4CN(C(=O)c5ccc6c(c5)OCO6)CC(=O)N4[C@H]3CO)cc2)c1 | 1.05 ± 0.016 | –
6 | C[C@@H]1CN([C@@H](C)CO)C(=O)Cc2cc(NC(=O)CCC(F)(F)F)ccc2O[C@H]1CN(C)CC1CC1 | 0.959 ± 0.12 | –
7 | O=C(N[C@@H]1C=C[C@@H](CC(=O)N2CCN(c3ccccc3)CC2)O[C@@H]1CO)c1ccccc1 | 1.11 ± 0.12 | –
8 | C[C@H](CO)N1C[C@H](C)[C@H](CN(C)C(=O)Nc2ccccc2C(F)(F)F)OCc2ccccc2-c2c(n(C)c3ccccc23)C1=O | 0.893 ± 0.091 | –
9 | CN1C(=O)c2cc(NC(=O)C3CCOCC3)ccc2OC[C@H]2O[C@H](CC(=O)NCc3ccccc3F)CC[C@H]21 | 0.983 ± 0.065 | –
10 | COc1cccc(S(=O)(=O)N(C)C[C@@H]2Oc3ncc(C#Cc4ccc(OC)c(OC)c4)cc3C(=O)N([C@H](C)CO)C[C@@H]2C)c1 | – | 1.01 ± 0.04
11 | CO[C@H]1CN(C)C(=O)c2ccc(NC(=O)C3CC3)cc2OC[C@@H](C)N(C(C)=O)C[C@@H]1C | 1.06 ± 0.043 | –
12 | CCCN1CC[C@@]2(CC1)CN(Cc1ccc3OCOc3c1)[C@H](CO)c1[nH]c3cc(OC)ccc3c21 | 0.993 ± 0.088 | –
13 | C/C=C/c1ccccc1[C@H]1[C@@H](CO)N(C(=O)Nc2cccc(F)c2)[C@H]1C#N | 1.0857 ± 0.00036 | –
14 | Cc1noc(C)c1NC(=O)Nc1ccc2c(c1)C(=O)N([C@@H](C)CO)C[C@H](C)[C@@H](CN(C)S(=O)(=O)c1cccs1)OCCCC[C@H](C)O2 | 1.09 ± 0.0097 | –
15 | CNC[C@@H]1OCc2cnnn2CCCC(=O)N([C@H](C)CO)C[C@@H]1C | 1.05 ± 0.061 | –
16 | O=S(=O)(c1ccc(F)cc1)N1C[C@@H]2[C@H](c3ccccc31)[C@H](CO)N2Cc1ccccc1Cl | 1.06 ± 0.1 | –
17 | CO[C@@H]1CN(C)C(=O)c2ccc(NC(=O)C3CC3)cc2OC[C@H](C)N(C(C)=O)C[C@@H]1C | 1.139 ± 0.008 | –
18 | CN1C(=O)c2cc(NS(C)(=O)=O)ccc2OC[C@H]2O[C@H](CC(=O)N3CCOCC3)CC[C@@H]21 | 1.11 ± 0.044 | –
19 | COC(=O)[C@H]1[C@H](CO)[C@H]2Cn3c(ccc(C4=CCCCC4)c3=O)[C@H]2N1C(=O)c1ccccc1F | 1.02 ± 0.024 | –
20 | CO[C@@H]1CN(C)C(=O)c2ccc(NC(C)=O)cc2OC[C@@H](C)N(C(=O)c2cnccn2)C[C@@H]1C | 1.1 ± 0.04 | –
21 | N#Cc1ccc(-c2ccc([C@@H]3[C@@H]4CN(C(=O)c5cccnc5)C[C@H]3N4)cc2)cc1 | 0.81 ± 0.2 | –
22 | C/C=C/c1ccccc1[C@@H]1[C@@H](C#N)N(C(=O)c2cccnc2)[C@H]1CO | 1.11 ± 0.017 | –
23 | C[C@H](O)C#Cc1ccc([C@H]2[C@H]3CN(CC4CC4)CCCCN3[C@H]2CO)cc1 | 1.05 ± 0.039 | –
24 | O=S(=O)(c1ccccc1)N1CCCCN2[C@H](CO)[C@H](c3ccc(C#CC4CCCC4)cc3)[C@@H]2C1 | 1.02 ± 0.016 | –

Row | SMILES | viability index [1] | viability index (library set: Broad Institute Blood Stage)
25 | C[C@@H]1CN([C@H](C)CO)C(=O)c2c(c3ccccc3n2C)-c2ccccc2CO[C@@H]1CN(C)C(=O)Nc1ccccc1C(F)(F)F | 1.022 ± 0.0024 | –
26 | C[C@@H]1CN([C@H](C)CO)C(=O)c2cc(N(C)C)ccc2O[C@H]1CN(C)CC1CCCCC1 | 1.04 ± 0.087 | –
27 | O=S(=O)(NC[C@@H]1[C@H](c2ccccc2)[C@@H](CO)N1CC1CC1)c1ccccc1 | 1.041 ± 0.006 | –
28 | Cc1ccc(S(=O)(=O)Nc2ccc3c(c2)C(=O)N([C@H](C)CO)C[C@H](C)[C@H](CN(C)Cc2ccc(C(F)(F)F)cc2)O3)cc1 | 1.06 ± 0.04 | –
29 | CCc1nc(N2[C@@H](C#N)[C@@H](c3ccccc3-c3ccccc3C)[C@@H]2CO)sc1C | 1.08 ± 0.12 | –
30 | COc1ccc2c3c([C@@H](CO)N(C[C@]33CN(CC4CCOCC4)C3)C(=O)c3ccc(F)cc3)n(C)c2c1 | 0.969 ± 0.075 | –
31 | O=C(c1cccc(F)c1)N1CC(=O)N2[C@@H](CO)[C@H](c3ccc(/C=C/c4ccccc4)cc3)[C@@H]2C1 | 1.08 ± 0.022 | –
32 | O=C(N[C@@H]1C=C[C@H](CC(=O)N2CCN(c3ccccc3)CC2)O[C@@H]1CO)c1ccccc1 | 1.17 ± 0.04 | –
33 | CCC(=O)NC[C@H]1[C@@H](c2ccc(-c3ccc(C#N)cc3)cc2)[C@@H](CO)N1CCC(F)(F)F | 1.01 ± 0.028 | –
34 | O=C(C[C@H]1C=C[C@@H](NC(=O)C2CCC2)[C@@H](CO)O1)NC1CCCCC1 | 1.09 ± 0.049 | –
35 | C/C=C/c1ccc2n(c1=O)C[C@H]1[C@H](CO)[C@@H](C(=O)N3CCOCC3)[C@@H]2N1CC1CCCC1.C/C=C\c1ccc2n(c1=O)C[C@H]1[C@H](CO)[C@@H](C(=O)N3CCOCC3)[C@@H]2N1CC1CCCC1 | 1.12 ± 0.042 | –
36 | Cc1cccc(S(=O)(=O)N2C[C@H](O)COC[C@@H]3O[C@H](CC(=O)Nc4ccccc4)CC[C@H]32)c1 | 1.13 ± 0.027 | –
37 | C[C@@H]1CN([C@@H](C)CO)C(=O)c2cc(NC(=O)Cn3cnnn3)ccc2O[C@H]1CN(C)C(=O)Nc1ccc2c(c1)OCO2 | 1.04 ± 0.069 | –
38 | C[C@@H](NC(=O)C[C@@H]1CC[C@@H]2[C@H](COC[C@@H](O)CN2Cc2ccc(C(F)(F)F)cc2)O1)c1ccccc1 | 1.05 ± 0.031 | –
39 | CN1CCCCN2[C@H](C1)[C@H](c1ccc(-c3ccc(F)cc3)cc1)[C@@H]2CO | 1.0465 ± 0.00013 | –
40 | COc1ccccc1-c1ccc([C@@H]2[C@@H]3CN(S(=O)(=O)c4ccc(C)cc4)C[C@H]2N3)cc1 | 0.91636 ± 0.00034 | –
41 | Cc1cccc(-c2ccc([C@H]3[C@@H]4CN(C(=O)Nc5ccc(F)cc5)C[C@H]3N4)cc2)c1 | 1.048 ± 0.002 | –
42 | COCC(=O)N1[C@@H]2c3ccc(-c4ccncc4)c(=O)n3C[C@@H]2[C@@H](CO)[C@@H]1C(=O)Nc1ccccc1 | 1.089 ± 0.0081 | –
43 | Cc1cccc(S(=O)(=O)N[C@@H]2CC[C@@H](CCNC(=O)Nc3cc(F)ccc3F)O[C@H]2CO)c1 | 1.1 ± 0.039 | –
44 | C[C@@H]1CN([C@@H](C)CO)C(=O)CCCn2nncc2CO[C@@H]1CN(C)Cc1ccc2cccnc2c1 | 1.01 ± 0.064 | –
45 | CCC(=O)N1C[C@H](C)[C@H](OC)CN(C)C(=O)c2cc(NC(=O)Nc3ccc(Cl)cc3)ccc2OC[C@H]1C | 1.05 ± 0.052 | –
46 | O=C(C[C@@H]1C=C[C@H](NC(=O)Cc2cccnc2)[C@@H](CO)O1)NCc1ccc2c(c1)OCO2 | 1.13 ± 0.067 | –
47 | N#Cc1ccc(-c2ccc([C@H]3[C@@H]4CN(C(=O)c5cccnc5)C[C@H]3N4)cc2)cc1 | 1.15 ± 0.046 | –
48 | O=C(c1ccc(F)cc1)N1CC(=O)N2[C@H](CO)[C@@H](c3ccc(C#CCC4CCCC4)cc3)[C@H]2C1 | 1.07 ± 0.025 | –

Row | SMILES | viability index [1] | viability index (library set: Broad Institute Blood Stage)
49 | C[C@H](CO)N1C[C@H](C)[C@H](CN(C)Cc2cccnc2)Oc2ncc(-c3ccc(C#N)cc3)cc2C1=O | 1.03 ± 0.07 | –
50 | COc1ccc(C[C@H]2CCn3cc(nn3)COC[C@@H](c3ccccc3)NC2=O)cc1 | 1.02 ± 0.02 | –
51 | C[C@H]1CN([C@@H](C)CO)C(=O)CCCn2nncc2CO[C@H]1CN(C)Cc1cccc(C(F)(F)F)c1 | 1.029 ± 0.0053 | –
52 | COc1ccc(CN2C[C@H](O)COC[C@H]3O[C@H](CC(=O)N(C)C)CC[C@@H]32)cc1 | 1.14 ± 0.016 | –
53 | CO[C@H]1CN(C)C(=O)c2cc(NC(=O)CC(F)(F)F)ccc2OC[C@H](C)N(CC2CC2)C[C@@H]1C | 1 ± 0.031 | –
54 | Cc1noc(C)c1C(=O)N(C)C[C@H]1OCc2ccccc2-c2ccccc2C(=O)N([C@@H](C)CO)C[C@@H]1C | 1.01 ± 0.065 | –
55 | O=C(C[C@@H]1CC[C@H]2[C@@H](COC[C@H](O)CN2C(=O)Cc2ccccc2)O1)NC1Cc2ccccc2C1 | 1.02 ± 0.092 | –
56 | C[C@H]1CN([C@@H](C)CO)C(=O)c2ccccc2-c2ccccc2CO[C@@H]1CN(C)C(=O)[C@H]1CCCN1C | 0.952 ± 0.11 | –
57 | O=S(=O)(NC[C@@H]1[C@H](c2ccccc2)[C@H](CO)N1CC1CC1)c1ccccc1 | 1.03 ± 0.049 | –
58 | CO[C@@H](CN(C)S(=O)(=O)c1ccc(F)cc1)[C@@H](C)CN(Cc1ccccc1Cl)[C@@H](C)CO | 0.947 ± 0.085 | –
59 | O=C(C[C@H]1CC[C@@H]2[C@H](COC[C@H](O)CN2C(=O)c2ccc3c(c2)OCO3)O1)NC1CCC1 | 1.07 ± 0.0047 | –
60 | COc1ccc2c3c([nH]c2c1)[C@@H](CO)NC[C@]31CCN(CC1)C(=O)C1CCOCC1 | 0.913 ± 0.043 | –
61 | CN1C[C@@H]2[C@H](c3ccccc31)[C@@H](CO)N2S(=O)(=O)c1ccccc1 | 0.969 ± 0.059 | –
62 | COc1ccc2c3c([nH]c2c1)[C@@H](CO)N(C[C@]31CN(C1)C(=O)c1cccnc1)C(=O)CN(C)C | 1.06 ± 0.074 | –
63 | O=C(C[C@@H]1CC[C@@H]2NC[C@@H](O)COC[C@H]2O1)NCCc1ccncc1 | 0.998 ± 0.085 | –
64 | O=C(Nc1ccc(-c2ccccc2)cc1)[C@@H]1[C@@H](CO)[C@@H]2Cn3c(cccc3=O)[C@@H]2N1CC1CCOCC1 | 0.931 ± 0.11 | –
65 | CCN(C[C@H]1[C@H](c2ccccc2)[C@@H](CO)N1CC1CC1)C(=O)c1ccccn1 | 1.06 ± 0.0024 | –
66 | COCC(=O)Nc1ccc2c(c1)OC[C@H](C)N(C)C[C@H](C)[C@H](OC)CN(C)C2=O | 1.08 ± 0.012 | –
67 | COc1cccc(NC(=O)C[C@H]2CC[C@@H]3[C@H](COc4ccc(NC(=O)C5CC5)cc4C(=O)N3C)O2)c1 | 1.15 ± 0.12 | –
68 | C[C@H](CO)N1C[C@H](C)[C@H](CN(C)C(=O)Cc2ccccn2)Oc2ncc(-c3cccc(C(=O)N(C)C)c3)cc2C1=O | 1.07 ± 0.12 | –
69 | C[C@H]1CN([C@@H](C)CO)C(=O)c2cc(C#CC3(O)CCCC3)cnc2O[C@H]1CN(C)S(=O)(=O)c1cccc(F)c1 | 1.13 ± 0.062 | –
70 | CO[C@H]1CN(C)C(=O)c2ccc(NC(=O)Nc3ccccc3Cl)cc2OC[C@@H](C)NC[C@@H]1C | 1.036 ± 0.0033 | –
71 | C/C=C/c1ccc([C@@H]2[C@@H](CO)N3C(=O)CN(C(=O)c4ccncc4)C[C@H]23)cc1 | 0.96 ± 0.021 | –
